From patent US20250333528A1 (DENALI THERAPEUTICS, published 2025)

B1: B07v20 (Fc fusion)
chain: QVQLVESGGGLVQTGGSLRLSCTASGLTSDTGGMGWFRQAAGKERDFVSAITWSGRHTLYADSVKGRFNISRDKGKNTVFLQMNSLKPEDTAVYYCALDVVGAGIEVQTYDYWGQGTQVTVSSGGGGAS[sequence of human IgG1 Fc with changes omitted]
notes: B07 I99A (Kabat) on human IgG1 Fc; also called B07 I99A
B2: B07v21 (Fc fusion)
chain: QVQLVESGGGLVQTGGSLRLSCTASGLTSDTGGMGWFRQAAGKERDFVSAITWSGRHTLYADSVKGRFNISRDKGKNTVFLQMNSLKPEDTAVYYCALDVVGIAIEVQTYDYWGQGTQVTVSSGGGGAS[sequence of human IgG1 Fc with changes omitted]
notes: B07 G100A (Kabat) on human IgG1 Fc; also called B07 G100A
B3: B07v22 (Fc fusion)
chain: QVQLVESGGGLVQTGGSLRLSCTASGLTSDTGGMGWFRQAAGKERDFVSAITWSGRHTLYADSVKGRFNISRDKGKNTVFLQMNSLKPEDTAVYYCALDVVGIGAEVQTYDYWGQGTQVTVSSGGGGAS[sequence of human IgG1 Fc with changes omitted]
notes: B07 I100aA (Kabat) on human IgG1 Fc; also called B07 I100aA
B4: B07v23 (Fc fusion)
chain: QVQLVESGGGLVQTGGSLRLSCTASGLTSDTGGMGWFRQAAGKERDFVSAITWSGRHTLYADSVKGRFNISRDKGKNTVFLQMNSLKPEDTAVYYCALDVVGIGIAVQTYDYWGQGTQVTVSSGGGGAS[sequence of human IgG1 Fc with changes omitted]
notes: B07 E100bA (Kabat) on human IgG1 Fc; also called B07 E100bA
B5: B07v24 (Fc fusion)
chain: QVQLVESGGGLVQTGGSLRLSCTASGLTSDTGGMGWFRQAAGKERDFVSAITWSGRHTLYADSVKGRFNISRDKGKNTVFLQMNSLKPEDTAVYYCALDVVGIGIEAQTYDYWGQGTQVTVSSGGGGAS[sequence of human IgG1 Fc with changes omitted]
notes: B07 V100cA (Kabat) on human IgG1 Fc; also called B07 V100cA
B6: B07v25 (Fc fusion)
chain: QVQLVESGGGLVQTGGSLRLSCTASGLTSDTGGMGWFRQAAGKERDFVSAITWSGRHTLYADSVKGRFNISRDKGKNTVFLQMNSLKPEDTAVYYCALDVVGIGIEVATYDYWGQGTQVTVSSGGGGAS[sequence of human IgG1 Fc with changes omitted]
notes: B07 Q100dA (Kabat) on human IgG1 Fc; also called B07 Q100dA
B7: B07v26 (Fc fusion)
chain: QVQLVESGGGLVQTGGSLRLSCTASGLTSDTGGMGWFRQAAGKERDFVSAITWSGRHTLYADSVKGRFNISRDKGKNTVFLQMNSLKPEDTAVYYCALDVVGIGIEVQAYDYWGQGTQVTVSSGGGGAS[sequence of human IgG1 Fc with changes omitted]
notes: B07 T100eA (Kabat) on human IgG1 Fc; also called B07 T100eA
B8: B07v27 (Fc fusion)
chain: QVQLVESGGGLVQTGGSLRLSCTASGLTSDTGGMGWFRQAAGKERDFVSAITWSGRHTLYADSVKGRFNISRDKGKNTVFLQMNSLKPEDTAVYYCALDVVGIGIEVQTFDYWGQGTQVTVSSGGGGAS[sequence of human IgG1 Fc with changes omitted]
notes: B07 Y100fF (Kabat) on human IgG1 Fc; also called B07 Y100fF
B9: B07v28 (Fc fusion)
chain: QVQLVESGGGLVQTGGSLRLSCTASGLTSDTGGMGWFRQAAGKERDFVSAITWSARHTLYADSVKGRFNISRDKGKNTVFLQMNSLKPEDTAVYYCALDVVGIGIEVQTYDYWGQGTQVTVSSGGGGAS[sequence of human IgG1 Fc with changes omitted]
notes: B07 G54A (Kabat) on human IgG1 Fc; also called B07 G54A
B10: B07v29 (Fc fusion)
chain: QVQLVESGGGLVQTGGSLRLSCTASGLTSDTGGMGWFRQAAGKERDFVSAITWSGRATLYADSVKGRFNISRDKGKNTVFLQMNSLKPEDTAVYYCALDVVGIGIEVQTYDYWGQGTQVTVSSGGGGAS[sequence of human IgG1 Fc with changes omitted]
notes: B07 H56A (Kabat) on human IgG1 Fc; also called B07 H56A
B11: B07v30 (Fc fusion)
chain: QVQLVESGGGLVQTGGSLRLSCTASGLTSDTGGMGWFRQAAGKERDFVSAITFSGRHTLYADSVKGRFNISRDKGKNTVFLQMNSLKPEDTAVYYCALDVVGIGIEVQTYDYWGQGTQVTVSSGGGGAS[sequence of human IgG1 Fc with changes omitted]
notes: B07 W52aF (Kabat) on human IgG1 Fc; also called B07 W52aF
B12: hB07v7 (Fc fusion)
chain: EVQLVESGGGLVQPGGSLRLSCAASGLTSDTGGMGWFRQAPGKEREFVSAITWSGRHTLYADSVKGRFTISRDNSKNTVYLQMNSLRAEDTAVYYCALDVVGIGIEVQTYDYWGQGTLVTVSSGGGGAS[sequence of human IgG1 Fc with changes omitted]
notes: Humanized B07 VHH (hu VH3; 37F, 44E, 45R, 47F, 78V) fused to human IgG1 Fc
B13: hB07v8 (Fc fusion)
chain: EVQLVESGGGLVQPGGSLRLSCAASGLTSDTGGMGWFRQAPGKEREFVSAITWSGRHTLYADSVKGRFTISRDKSKNTVYLQMNSLRAEDTAVYYCALDVVGIGIEVQTYDYWGQGTLVTVSSGGGGAS[sequence of human IgG1 Fc with changes omitted]
notes: Humanized B07 VHH (hu VH3; 37F, 44E, 45R, 47F, 73K, 78V) fused to human IgG1 Fc
B14: hB07v15 (Fc fusion)
chain: EVQLVESGGGLVQPGGSLRLSCAASGLTSDTGGMGWFRQAPGKELEWVSAITWSGRHTLYADSVKGRFTISRDKSKNTVYLQMNSLRAEDTAVYYCALDVVGIGIEVQTYDYWGQGTLVTVSSGGGGAS[sequence of human IgG1 Fc with changes omitted]
notes: Humanized B07 VHH (hu VH3; 37F, 44E, 73K, 78V) fused to human IgG1 Fc
B15: hB07v16 (Fc fusion)
chain: EVQLVESGGGLVQPGGSLRLSCAASGLTSDTGGMGWFRQAPGKGREWVSAITWSGRHTLYADSVKGRFTISRDKSKNTVYLQMNSLRAEDTAVYYCALDVVGIGIEVQTYDYWGQGTLVTVSSGGGGAS[sequence of human IgG1 Fc with changes omitted]
notes: Humanized B07 VHH (hu VH3; 37F, 45R, 73K, 78V) fused to human IgG1 Fc
B16: hB07v2 (Fc fusion)
chain: EVQLVESGGGLVQPGGSLRLSCAASGLTSDTGGMGWFRQAPGKGLEWVSAITWSGRHTLYADSVKGRFTISRDNSKNTLYLQMNSLRAEDTAVYYCALDVVGIGIEVQTYDYWGQGTLVTVSSGGGGAS[sequence of human IgG1 Fc with changes omitted]
notes: Humanized B07 VHH (hu VH3; 37F) fused to human IgG1 Fc
B17: hB07v3 (Fc fusion)
chain: EVQLVESGGGLVQPGGSLRLSCAASGLTSDTGGMGWFRQAPGKELEWVSAITWSGRHTLYADSVKGRFTISRDNSKNTLYLQMNSLRAEDTAVYYCALDVVGIGIEVQTYDYWGQGTLVTVSSGGGGAS[sequence of human IgG1 Fc with changes omitted]
notes: Humanized B07 VHH (hu VH3; 37F, 44E) fused to human IgG1 Fc
B18: hB07v4 (Fc fusion)
chain: EVQLVESGGGLVQPGGSLRLSCAASGLTSDTGGMGWFRQAPGKGREWVSAITWSGRHTLYADSVKGRFTISRDNSKNTLYLQMNSLRAEDTAVYYCALDVVGIGIEVQTYDYWGQGTLVTVSSGGGGAS[sequence of human IgG1 Fc with changes omitted]
notes: Humanized B07 VHH (hu VH3; 37F, 45R) fused to human IgG1 Fc
B19: hB07v5 (Fc fusion)
chain: EVQLVESGGGLVQPGGSLRLSCAASGLTSDTGGMGWFRQAPGKEREWVSAITWSGRHTLYADSVKGRFTISRDNSKNTLYLQMNSLRAEDTAVYYCALDVVGIGIEVQTYDYWGQGTLVTVSSGGGGAS[sequence of human IgG1 Fc with changes omitted]
notes: Humanized B07 VHH (hu VH3; 37F, 44E, 45R) fused to human IgG1 Fc

What follows are binders tested against T1, human transferrin receptor apical domain (human, UniProt P02786 198-378, limits assumed) (assay: SPR (Biacore 8K), VHH-Fc captured, TfR apical domain as analyte).
T1 construct: domain: apical domain; Soluble analyte in SPR; also called huTfR-AD; human TfR apical domain
Experimental: (§1) A set of experiments was performed to assess the binding affinities of VHH-Fc fusions for human and cyno TfR apical domain. In these experiments, binding affinities were determined by surface plasmon resonance using a Biacore™ 8K instrument in 1×HBS-EP+running buffer (GE Healthcare Cat. No. BR100669). Biacore™ Series S CM5 sensor chips were treated with a Human antibody capture kit (GE Healthcare, Cat. No. BR100839). VHH-Fc fusions were captured on each flow cell and serial 3-fold dilutions of human and cyno TfR apical domain (300, 100, 33, 11, 3.7, and 0 nM) were injected at a flow rate of 30 μL/min using the multi cycle kinetics method. Each sample was analyzed with a 270-second association and a 10-minute dissociation. Some VHH-Fc fusions were measured with serial 3-fold dilutions of human and cyno TfR apical domain (100, 33, 11, and 0 nM) with a 300-second association and 10-minute dissociation. After each cycle, the chip was regenerated using 3 M magnesium chloride for 30 seconds at 50 μL/minute. Binding response was corrected by subtracting the RU from a reference flow cell. A 1:1 Langmuir model of simultaneous fitting of kₒₙ and koff was used for kinetics analysis using Biacore™ 8K Evaluation Software.
(§2) The variable domains containing the mutation were sub-cloned onto the corresponding constant heavy domains of human IgG1. The heavy chain plasmids were transfected in Expi293 cells. Supernatants were collected after five days and monoclonal antibodies were purified by protein A chromatography. In order to assess affinities of the B07 mutants for human and cyno TfR apical domain, binding affinities were determined by surface plasmon resonance using a Biacore™ 8K instrument as described herein.

Compared with B1, B2 is 11-fold higher in Kd: 20 nM for the first, 220 nM for the second.

First: B3
Second: B4
The Kd of the first is 4.5-fold higher: 8.9 nM for the first, 2 nM for the second. The second binds more tightly here.

B5 and B6 are within 1.5-fold of each other in Kd: 1 nM for the first, 1.1 nM for the second.

B7 and B8 are within 1.5-fold of each other in Kd: 2.4 nM for the first, 2.8 nM for the second.

First: B9
Second: B10
The Kd of the first is 5.1-fold lower: 1 nM for the first, 5.1 nM for the second.

In the case of B11, the Kd is reported as 1.2 nM.

These binders were tested against T2, cynomolgus transferrin receptor apical domain (cynomolgus, UniProt A0A2K5X958 198-378) in the same assay as above.
T2 construct: domain: apical domain; Soluble analyte in SPR; also called cyTfR-AD; cyno TfR apical domain
Experimental: as §1, §2

T2 sequence (A0A2K5X958 entry or part of it): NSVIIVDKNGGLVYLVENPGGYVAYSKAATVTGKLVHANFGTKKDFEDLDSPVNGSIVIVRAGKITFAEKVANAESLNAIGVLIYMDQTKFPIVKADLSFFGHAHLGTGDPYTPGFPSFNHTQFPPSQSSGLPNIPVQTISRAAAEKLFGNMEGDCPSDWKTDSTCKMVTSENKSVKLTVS

First: B1
Second: B2
The Kd of the first is 6.7-fold lower: 55 nM for the first, 370 nM for the second. The first binds more tightly here.

First: B3
Second: B4
The Kd of the first is 5.6-fold higher: 28 nM for the first, 5 nM for the second. The second binds more tightly here.

B5 and B6 are within 1.5-fold of each other in Kd: 2 nM for the first, 2.8 nM for the second.

B7 and B8 are within 1.5-fold of each other in Kd: 6.6 nM for the first, 6.7 nM for the second.

Compared with B9, B10 is 4.8-fold higher in Kd: 2.3 nM for the first, 11 nM for the second. The first binds more tightly here.

B11 was tested, and the Kd was 1 nM.

Target: T1, human transferrin receptor apical domain
Experiment: as above
Remark: another data set of the same source
Experimental: as §1

T1 sequence (P02786 198-378 limits assumed): as the sequence (A0A2K5X958 entry or part of it) above, with G11R, D50Y, S51T, K95N, D97E, Q128R, K167R, N173S, S175N counted along it

B12 and B13 are within 1.5-fold of each other in Kd: 1 nM for the first, 0.7 nM for the second.

B14 and B15 are within 1.5-fold of each other in Kd: 0.8 nM for the first, 1.1 nM for the second.

B16 and B17 are the same in Kd: 4 nM for the first, 4 nM for the second.

B18 and B19 are within 1.5-fold of each other in Kd: 7 nM for the first, 6.7 nM for the second.

Target: T2, cynomolgus transferrin receptor apical …
Experiment: as above
Remark: another data set of the same source
Experimental: as §1

B12 and B13 are within 1.5-fold of each other in Kd: 2.8 nM for the first, 1.9 nM for the second.

First: B14
Second: B15
The Kd of the first is 1.7-fold lower: 1.9 nM for the first, 3.3 nM for the second. The first binds more tightly here.

B16 and B17 are within 1.5-fold of each other in Kd: 9 nM for the first, 9.5 nM for the second.

B18 and B19 are within 1.5-fold of each other in Kd: 13.4 nM for the first, 13.8 nM for the second.
